# PubChem BioAssay AID488969 (Vanderbilt High Throughput Screening Facility, 2010)
# Whole data set: some 110,000 compounds, median “z-score” near -0.1, cut for the highest 2% near 2. This is one part of the list. Calls of active or inactive are those of the source.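 How the source made its calls: active means z-score in the third read window above 3 or below -3; inactive means the rest.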
# Target: Metabotropic glutamate receptor 8 (Rattus norvegicus) (UniProt P70579)
# Experiment: mGluR8 Gi/Go-coupled signaling modulation – cell-based, rat, thallium flux, HTS, primary screen (AID 488969)
# Conditions: HEK293 rat mGluR8, GIRK (G protein-gated inwardly rectifying potassium channel) thallium flux, FluoZin2; at 10 µM; stronger effect = higher value; submaximal glutamate (EC20) added with thallium
# UniProt P70579, sequence (P70579 whole entry, looked up): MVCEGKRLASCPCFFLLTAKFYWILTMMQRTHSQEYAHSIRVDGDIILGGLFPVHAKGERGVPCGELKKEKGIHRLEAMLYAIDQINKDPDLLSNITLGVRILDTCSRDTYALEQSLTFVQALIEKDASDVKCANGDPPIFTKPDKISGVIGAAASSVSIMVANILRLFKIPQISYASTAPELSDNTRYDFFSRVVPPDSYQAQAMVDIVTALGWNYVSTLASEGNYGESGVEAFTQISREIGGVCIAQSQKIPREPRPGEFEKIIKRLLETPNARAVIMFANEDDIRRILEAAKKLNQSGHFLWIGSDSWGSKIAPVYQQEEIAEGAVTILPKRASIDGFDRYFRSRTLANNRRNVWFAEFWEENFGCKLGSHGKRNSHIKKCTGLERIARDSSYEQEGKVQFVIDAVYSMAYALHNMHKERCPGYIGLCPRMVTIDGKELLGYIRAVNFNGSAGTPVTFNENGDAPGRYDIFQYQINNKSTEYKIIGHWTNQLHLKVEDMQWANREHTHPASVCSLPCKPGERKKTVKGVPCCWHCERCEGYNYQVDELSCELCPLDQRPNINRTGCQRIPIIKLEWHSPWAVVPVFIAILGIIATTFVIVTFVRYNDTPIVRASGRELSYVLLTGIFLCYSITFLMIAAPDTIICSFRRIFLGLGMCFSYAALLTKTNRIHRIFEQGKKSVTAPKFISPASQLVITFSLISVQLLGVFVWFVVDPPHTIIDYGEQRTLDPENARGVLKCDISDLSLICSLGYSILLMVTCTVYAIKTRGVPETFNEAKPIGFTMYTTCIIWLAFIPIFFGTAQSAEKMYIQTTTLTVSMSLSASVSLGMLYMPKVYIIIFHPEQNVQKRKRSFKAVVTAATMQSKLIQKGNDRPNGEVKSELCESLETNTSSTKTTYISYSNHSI
row,SMILES,z-score
1,CCc1ccc2c(c1)/C(=N/OC)C(=O)N2,-0.145
2,COCCn1nnnc1C(c1cc2cc(OC)ccc2[nH]c1=O)N1CCC(Cc2ccccc2)CC1 (stereo not given),1.14
3,COc1ccc(NC(=O)c2cccnc2C(=O)O)c(OC)c1,0.0809
4,COc1cc(C(c2sc3nc(C)nn3c2O)N2CCOCC2)cc(OC)c1OC (stereo not given),0.504
5,COc1ccc(Cn2nnnc2C(c2cccs2)N2CCN(c3ccccc3)CC2)cc1 (stereo not given),-0.248
6,Cc1ccc(NC(=O)c2c(C(F)(F)F)nn(C)c2Cl)cc1C,-0.0324
7,Cn1c(Cl)nc2ccccc21,0.0039
8,O=C(Nc1ccc(S(=O)(=O)Nc2ncccn2)cc1)c1ccco1,-0.0592
9,COc1ccc(COC(=O)N/N=C(\C)CC(=O)Nc2ccc(Cl)cc2)cc1,-0.318
10,CC12CCC(=O)N1c1ccccc1C(=O)N2c1ccccc1 (stereo not given),-0.19
11,CCNC(=O)CC1SC(=Nc2ccc(C)cc2)NC1=O (stereo not given),-0.465
12,O=S(=O)(c1ccc(Br)s1)N1CCN(c2ccccc2)CC1,-0.407
13,O=C(Nc1nnc(C2CCCCC2)s1)c1ccc(Br)s1,-0.204
14,O=[N+]([O-])c1cc2c(c(CSc3nnnn3-c3ccc(O)cc3)c1)OCOC2,-0.166
15,O=C(c1ccccc1)[C@@H]1[C@@H](C(=O)c2ccc(F)cc2)[C@@]2(C(=O)Nc3ccccc32)[C@H]2c3ccccc3C=CN12,-0.0419
16,Cc1ccc(S(=O)(=O)n2nc(OC(=O)C3CCCCC3)cc2N)cc1,-1.51
17,CCOC(=O)/C(=N\Nc1cccc(Cl)c1)Sc1nnc(-c2ccc(OC)cc2)n1C,-0.247
18,COc1ccc(CNCC(O)(c2ccc(Cl)cc2)c2ccc(Cl)cc2)cc1,-0.78
19,CNC(=O)CSc1nc2c(c(=O)n(C)c(=O)n2C)n1Cc1ccc(C)cc1,2.07
20,COC(=O)CC(N)c1ccc(OC)c2ccccc12 (stereo not given),0.166
21,CCN(CC)CCOCCOc1cc(C)c(Cl)c(C)c1,0.603
22,CC(C)(CO)NCC(=O)Nc1cc(C(F)(F)F)cc(NC(=O)CNC(C)(C)CO)c1Cl,0.023
23,CCNCC(=O)N1c2ccccc2CCc2ccc(NC(C)=O)cc21,-0.541
24,Cc1cc(C)n2c(SCC(=O)Nc3ccc(Cl)cn3)nnc2n1,-0.145

row,SMILES,z-score
1,CN(C)S(=O)(=O)c1cccc(NC(=O)Cc2ccc(Cl)cc2)c1,active: 4.58
2,C(=C\c1cc(/C=C/c2ccccc2)ncn1)/c1ccccc1,-0.205
3,CCOc1ccc(C2CC(c3ccccc3C)n3ncnc3N2)cc1 (stereo not given),-0.364
4,Cc1nc2ccc(S(=O)(=O)NC(C(=O)NCc3ccc4c(c3)OCO4)C(C)C)cc2s1 (stereo not given),-0.0773
5,O=C(NC(=O)N1CCN(c2ccccc2)CC1)c1ccc(Cl)cc1,0.734
6,COc1cc(/C=c2/sc3nc(-c4ccccc4)c(-c4ccccc4)n3c2=O)cc(OC)c1OC,-0.244
7,O=S(=O)(Nc1ccc2c(c1)OCCO2)c1cccc2nsnc12,-0.16
8,Cc1cccc(CSc2ccc(-c3cccs3)nn2)c1,0.0583
9,CCOC(=O)CN(Cc1sccc1C)C(=O)Nc1ccc(OC)cc1OC,1.28
10,CN(CCNC(=O)c1ccc(N2CCCC2=O)cc1)CCc1ccccc1,-0.267
11,CCOc1ccc(Cn2c3ccc(OC)cc3c3nc4ccccc4nc32)cc1,-0.164
12,Cc1cc(C(=O)OCC(=O)NCCCN2CCCC2=O)c2ccccc2n1,0.0328
13,CCOCCn1c(=NC(=O)c2cc(Cl)sc2Cl)sc2cc(S(N)(=O)=O)ccc21,-0.0217
14,C=CCNc1ncnc2c1[nH]c1ccc(C)cc12,-0.185
15,COc1cc2ccccc2cc1C(=O)Nc1ccc(S(=O)(=O)Nc2cc(C)on2)cc1,-0.249
16,C=CCS/C(=N\n1cnc2ccccc2c1=O)N(CC)CC,0.506
17,CCOCCCNCC(=O)N1CCN(S(=O)(=O)c2ccc(C)cc2)CC1,0.811
18,COc1ccc(NS(=O)(=O)c2ccc(S(=O)(=O)N3CCCC3)cc2)cc1Cl,-0.164
19,Cc1cnn(CCC(=O)NNC(=S)Nc2ccccc2)c1,-0.0444
20,CN(C)c1ccc(/C=N/c2cc(-c3ccccc3)nn2-c2ccccc2)cc1,-0.221
21,CCOc1ccc(NC(N)=O)cc1OCC,-0.0733
22,Cc1onc(-c2c(Cl)cccc2Cl)c1C(=O)Nc1c(C)n(C)n(-c2ccccc2)c1=O,0.635
23,C/C(=N\NC(=S)NC(C)C)c1ccc(Cl)s1,active: 5.46
24,O=C1CCCc2[nH]nc(-c3cccnc3)c21,-0.319

row,SMILES,z-score
1,CCn1nc(C)c(NC(=O)CCSc2nc(-c3ccco3)cc(C(F)(F)F)n2)c1C,-0.494
2,O=C(NCC1CCCO1)C1CC1(c1ccccc1)c1ccccc1 (stereo not given),1.76
3,Cc1ccc(N2CCN(CC(=O)Nc3c(C(=O)C4CC4)oc4ccccc34)CC2)cc1,-0.413
4,COCc1nnc(NC(=O)CCSc2ccccc2)s1,-0.0854
5,CCn1c(=S)sc2c(=O)n(-c3ccccc3)c(SC)nc21,-0.531
6,N#Cc1c(NC(=S)NC(=O)Cc2cccs2)sc2c1CCCCC2,0.576
7,CCCn1c(-c2nonc2N)nc2ccccc21,-0.0596
8,O=C(CSc1cn(CCNC(=O)c2cccs2)c2ccccc12)NC1CCCCC1,-0.0746
9,CCCC(=O)Nc1ccc2nc(SCC(=O)Nc3ccc(N4CCOCC4)c(Cl)c3)sc2c1,0.487
10,COCCCNc1oc(-c2ccccc2F)nc1C#N,-0.0333
11,Cc1ccc(S(=O)(=O)N(CCO)c2cc3c(s2)CCCC3)cc1,-0.0191
12,c1cc2nncn2nc1N1CCCC1,-0.181
13,O=C(CC1(O)C(=O)N(Cc2ccc3c(c2)OCO3)c2ccccc21)c1ccccc1 (stereo not given),-0.394
14,O=C(NC1CS(=O)(=O)CC1NCc1ccccc1)c1ccccc1 (stereo not given),0.00939
15,CC(=O)Nc1ccc(S(=O)(=O)NCc2ccc(C(=O)NC(C)c3ccccc3)cc2)cc1 (stereo not given),-0.32
16,COc1ccccc1NC(=O)C1CCCCN1S(=O)(=O)c1ccc(F)cc1 (stereo not given),-0.247
17,Cn1c(=O)oc2cc(S(=O)(=O)NCCC(=O)N3CCc4ccccc4C3)ccc21,-0.0159
18,CCOC(=O)C1(S(=O)(=O)c2ccc(Cl)cc2)CCN(Cc2ccc(Cl)cc2)CC1,0.334
19,Cc1cc(C)cc(Oc2cc(NC(=O)c3cn(C)nc3C)cc([N+](=O)[O-])c2)c1,-0.139
20,CCc1nnc(NC(=O)CCN(c2ccc(C)cc2)S(=O)(=O)c2ccccc2)s1,-1.49
21,CS(=O)(=O)N(CC(O)CON=C1c2ccccc2-c2ccccc21)c1ccc(F)cc1 (stereo not given),0.31
22,CC1(C)Cc2c(sc3[nH]c(=S)n(Cc4ccco4)c(=O)c23)CO1,active: 8.31
